# In PubChem BioAssay (Tox21):
# Where “and” joins values, the source holds several entries; their conditions need not be identical. Identical values can stand only once. Inconclusive means that the source gave no clear call. Such entries were picked first, then a sample of the others. For some assays here: A potency beside an inconclusive call is a rough fit, not a confirmed value. Calls of active or inactive are those of the source. Unless noted, the call rests on the fitted dose curve; in most records, active means well fitted curve in the direction sought with a large enough effect in the repeat runs; inconclusive means weak or mixed curves; inactive means no such curve, though single readings can be large; an effect the other way counts as inactive or inconclusive.
# Experiments:
# [1] = biological target: Peroxisome proliferator-activated receptor gamma (Homo sapiens) (UniProt P37231); assay: qHTS assay to identify small molecule antagonists of the peroxisome proliferator-activated receptor gamma (PPARg) signaling pathway (AID 743191; calls by dose curve; further: nearly all actives have a fitted effect of over 30% in size; further: potency means the concentration at half of the fitted maximal effect; on ratio activity, negative = inhibition: on the % scale 0 is the no-effect control and ±100 the full control effect); conditions: HEK293H PPARg-UAS-bla, beta-lactamase ratio, antagonist, 17 h; ratio activity, negative = inhibition: at 62.6 µM (top of the series) unless noted
# Method in brief: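 GeneBLAzer PPARg UAS-bla HEK293H cells, 5 h post-plating, exposed to compounds 17 h at 37C. LiveBLAzer B/G FRET substrate added for 1 h at room temperature; beta-lactamase reporter read by fluorescence intensity.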
# [2] = qHTS assay to identify small molecule antagonists of the peroxisome proliferator-activated receptor gamma (PPARg) signaling pathway - cell viability counter screen (AID 743194); conditions: PPARg-bla HEK293H viability, CellTiter-Glo luminescence, 17 h; Potency: co-treated with 50 nM rosiglitazone unless noted; activity change, negative = cytotoxicity: at 62.6 µM (top of the series), co-treated with 50 nM rosiglitazone unless noted; further: nearly all actives have a fitted effect of over 55% in size; further: potency means the concentration at half of the fitted maximal effect; on activity change, negative = cytotoxicity: on the % scale 0 is the no-effect control and ±100 the full control effect
# Method in brief: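 Cytotoxicity counter screen in PPARg-bla HEK293H cells, same wells as reporter assay. Compounds plus 50 nM rosiglitazone (final) for 17 h at 37 C, then viability read by CellTiter-Glo luminescence.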
# [3] = qHTS assay for small molecule agonists of the antioxidant response element (ARE) signaling pathway (AID 743202; active means well fitted activation curve with a large enough effect in the signal ratio in the repeat runs, not every such curve was filed as active; inconclusive means weak or mixed curves, or effect the other way; inactive means no such curve, though single readings can be large or run the other way; the % refers to the signal ratio; further: potency means the concentration at half of the fitted maximal effect); conditions: HepG2 ARE-bla reporter, beta-lactamase FRET, 16 h; activation: at 73.3 µM (top of the series) unless noted
# Method in brief: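 ARE-bla HepG2 cells (beta-lactamase reporter under the antioxidant response element), plated 5 hours, then exposed to compounds 16 hours at 37 C. LiveBLAzer B/G FRET substrate added for 2 hours at room temperature; fluorescence intensity read.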
# [4] = biological target: Vitamin D3 receptor (Homo sapiens) (UniProt P11473); assay: qHTS assay to identify small molecule agonists of the vitamin D receptor (VDR) signaling pathway (AID 743222; calls by dose curve; further: on the % scale 0 is the no-effect control and ±100 the full control effect); conditions: HEK293T VDR-UAS-bla, beta-lactamase FRET ratio, 16 h; activation: at 63.5 µM (top of the series) unless noted
# Method in brief: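 VDR-bla cells plated 4 h at 37 C, then exposed to compounds for 16 h at 37 C. Beta-lactamase reporter activity measured by fluorescence after 2 h room-temperature loading with LiveBLAzer B/G FRET substrate.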
# [5] = qHTS assay for small molecule activators of the heat shock response signaling pathway (AID 743210; active means well fitted activation curve with a large enough effect in the signal ratio in the repeat runs, with a control signal flat, not every such curve was filed as active; inconclusive means weak or mixed curves; the % refers to the signal ratio; further: potency means the concentration at half of the fitted maximal effect); conditions: HeLa HSE-bla reporter, beta-lactamase ratio, 5 h; activation: at 62.6 µM (top of the series)
# Method in brief: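 HSE-bla HeLa cells (beta-lactamase reporter under heat shock response elements), plated overnight, then exposed to compounds 5 h at 37 C; LiveBLAzer B/G FRET substrate added, 2.5 h at room temperature, fluorescence intensity read.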
# [6] = qHTS assay to identify small molecule antagonists of the peroxisome proliferator-activated receptor delta (PPARd) signaling pathway - cell viability counter screen (AID 743213); conditions: PPARd-bla HEK293H viability, CellTiter-Glo luminescence, 17 h; viability change, negative = cytotoxic: at 62 µM (top of the series) unless noted; further: nearly all actives have a fitted effect of over 50% in size; further: potency means the concentration at half of the fitted maximal effect
# Method in brief: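 Same-well viability: cells pre-incubated 5 h, dosed with compound plus 300 nM L165041, kept 17 h at 37 C, FRET substrate 2 h RT, then CellTiter-Glo 30 min RT and luminescence.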
# [7] = qHTS assay to identify small molecule agonists of the farnesoid-X-receptor (FXR) signaling pathway - cell viability counter screen (AID 743218); conditions: FXR-bla HEK293T viability, CellTiter-Glo luminescence, 16 h; viability change, negative = cytotoxic: at 62.6 µM (top of the series) unless noted; further: on the % scale 0 is the no-effect control and ±100 the full control effect; nearly all actives have a fitted effect of over 45% in size
# Method in brief: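 FXR-UAS-bla HEK 293T cells exposed to compounds for 16 h at 37C. Cytotoxicity read in the same wells by CellTiter-Glo luminescence after 30 min at room temperature, following the beta-lactamase FRET read.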
# [8] = qHTS assay for small molecule agonists of the antioxidant response element (ARE) signaling pathway - cell viability counter screen (AID 743203; calls by dose curve; further: potency means the concentration at half of the fitted maximal effect; nearly all actives have a fitted effect of over 55% in size)
# Method in brief: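 ARE-bla HepG2 cells were plated, rested 5 h at 37C/5% CO2, then exposed to compounds in DMSO for 16 h. Viability was read as CellTiter-Glo luminescence after 30 min at room temperature, in the same wells as the ARE screen.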
# [9] = qHTS assay to identify small molecule agonists of the peroxisome proliferator-activated receptor delta (PPARd) signaling pathway - cell viability counter screen (AID 743211); conditions: PPARd-bla HEK293H viability, CellTiter-Glo luminescence, 17 h; activity change, negative = cytotoxicity: at 62.6 µM (top of the series) unless noted; further: potency means the concentration at half of the fitted maximal effect; nearly all actives have a fitted effect of over 55% in size
# Method in brief: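 Read-out: CellTiter-Glo luminescence, 30 min RT, measured in the same wells as the beta-lactamase reporter. Cells: GeneBLAzer PPAR delta UAS-bla HEK293H, 3000 cells/well, compound exposure 17 h at 37C.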
# [10] = biological target: Peroxisome proliferator-activated receptor delta (Homo sapiens) (UniProt Q03181); assay: qHTS assay to identify small molecule agonists of the peroxisome proliferator-activated receptor delta (PPARd) signaling pathway (AID 743212; calls by dose curve; further: potency means the concentration at half of the fitted maximal effect); conditions: HEK293H PPARd-UAS-bla, beta-lactamase FRET ratio, 17 h; activation: at 62.6 µM (top of the series) unless noted
# Method in brief: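 GeneBLAzer UAS-bla HEK293H cells carrying a PPARδ construct were exposed to compounds at 37 °C. Beta-lactamase activity was read by FRET fluorescence after 2 h at room temperature with LiveBLAzer B/G substrate.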
# [11] = biological target: Peroxisome proliferator-activated receptor delta (Homo sapiens) (UniProt Q03181); assay: qHTS assay to identify small molecule antagonists of the peroxisome proliferator-activated receptor delta (PPARd) signaling pathway (AID 743215; active means well fitted inhibition curve with a large enough effect in the signal ratio in the repeat runs, not every such curve was filed as active; inconclusive means weak or mixed curves, or effect the other way; inactive means no such curve, though single readings can be large or run the other way; the % refers to the signal ratio;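 further: cells stimulated with agonist L165041 at 300 nM final during compound exposure; potency means the concentration at half of the fitted maximal effect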); conditions: HEK293H PPARd-UAS-bla, beta-lactamase FRET ratio, antagonist, 17 h; ratio activity, negative = inhibition: at 62 µM (top of the series) unless noted
# Method in brief: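 PPARd-bla HEK293H cells (UAS-bla reporter) preincubated 5 h, then given compound plus 300 nM final L165041 agonist for 17 h at 37 C. Beta-lactamase activity read by LiveBLAzer B/G FRET substrate fluorescence after 2 h at room temperature.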
# [12] = biological target: Bile acid receptor (Homo sapiens) (UniProt Q96RI1); assay: qHTS assay to identify small molecule antagonists of the farnesoid-X-receptor (FXR) signaling pathway (AID 743217; active means well fitted inhibition curve with a large enough effect in the signal ratio in the repeat runs, not every such curve was filed as active; inconclusive means weak or mixed curves, or effect the other way; inactive means no such curve, though single readings can be large or run the other way; the % refers to the signal ratio; further: potency means the concentration at half of the fitted maximal effect); conditions: HEK293T FXR-UAS-bla, beta-lactamase ratio, CDCA-stimulated, 16 h; activity change, negative = inhibition: at 62.6 µM (top of the series) unless noted
# Method in brief: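 FXR-UAS-bla HEK 293T cells (beta-lactamase reporter) given compound plus chenodeoxycholic acid (50 uM final), 16 h at 37C. LiveBLAzer B/G FRET substrate added for 2 h at room temperature; fluorescence read.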
# [13] = biological target: Vitamin D3 receptor (Homo sapiens) (UniProt P11473); assay: qHTS assay to identify small molecule antagonists of the vitamin D receptor (VDR) signaling pathway (AID 743223; active means well fitted inhibition curve with a large enough effect in the signal ratio in the repeat runs, not every such curve was filed as active; inconclusive means weak or mixed curves, or effect the other way; inactive means no such curve, though single readings can be large or run the other way; the % refers to the signal ratio; further: on the % scale 0 is the no-effect control and ±100 the full control effect); conditions: VDR-UAS-bla HEK293T, beta-lactamase FRET ratio, 16 h; activity change, negative = inhibition: at 61 µM (top of the series) unless noted
# Method in brief: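 Beta-lactamase reporter read-out: FRET substrate fluorescence after 2 h at room temperature, following 16 h exposure of VDR-bla cells to test compound plus 3 nM (final) 1alpha,25-dihydroxyvitamin D3 agonist at 37C.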
# [14] = qHTS assay to identify small molecule agonists of the vitamin D receptor (VDR) signaling pathway - cell viability counter screen (AID 743224); further: potency means the concentration at half of the fitted maximal effect; nearly all actives have a fitted effect of over 50% in size
# Method in brief: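 VDR-bla cells, 4 h after plating, exposed to compounds for 16 h at 37C; viability then read in the same wells as CellTiter-Glo luminescence after 30 min at room temperature, following the bla FRET read.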
# [15] = qHTS assay to identify small molecule antagonists of the vitamin D receptor (VDR) signaling pathway - cell viability counter screen (AID 743225); conditions: VDR-bla HEK293T viability, CellTiter-Glo luminescence, 16 h; viability change, negative = cytotoxic: at 61 µM (top of the series) unless noted; further: potency means the concentration at half of the fitted maximal effect; nearly all actives have a fitted effect of over 50% in size
# Method in brief: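 Viability counter screen run in the same wells as the beta-lactamase reporter assay: HEK 293T VDR-UAS-bla cells, 16 h compound exposure at 37C with 3 nM (final) 1-alpha,25-dihydroxyvitamin D3. CellTiter-Glo luminescence, 30 min, room temperature.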
# [16] = qHTS assay to identify small molecule antagonists of the farnesoid-X-receptor (FXR) signaling pathway - cell viability counter screen (AID 743221; active means well fitted cell-killing curve with a large enough effect in the repeat runs, not every such curve was filed as active; inconclusive means weak or mixed curves, or effect the other way; inactive means no such curve, though single readings can be large or run the other way; further: on the % scale 0 is the no-effect control and ±100 the full control effect; nearly all actives have a fitted effect of over 50% in size); conditions: FXR-bla HEK293T viability, CellTiter-Glo luminescence, 16 h; activity change, negative = cytotoxicity: at 62.6 µM (top of the series) unless noted
# Method in brief: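 HEK 293T FXR-bla cells, 5 h pre-incubation; compound + CDCA 50 uM final, 16 h, 37 C; beta-lactamase FRET read first, then CellTiter-Glo luminescence, 30 min RT.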
# Tags describe the fitted curve by direction and shape or compound fluorescence and quenching.
# Chain of UniProt P37231 (P37231 whole entry, looked up): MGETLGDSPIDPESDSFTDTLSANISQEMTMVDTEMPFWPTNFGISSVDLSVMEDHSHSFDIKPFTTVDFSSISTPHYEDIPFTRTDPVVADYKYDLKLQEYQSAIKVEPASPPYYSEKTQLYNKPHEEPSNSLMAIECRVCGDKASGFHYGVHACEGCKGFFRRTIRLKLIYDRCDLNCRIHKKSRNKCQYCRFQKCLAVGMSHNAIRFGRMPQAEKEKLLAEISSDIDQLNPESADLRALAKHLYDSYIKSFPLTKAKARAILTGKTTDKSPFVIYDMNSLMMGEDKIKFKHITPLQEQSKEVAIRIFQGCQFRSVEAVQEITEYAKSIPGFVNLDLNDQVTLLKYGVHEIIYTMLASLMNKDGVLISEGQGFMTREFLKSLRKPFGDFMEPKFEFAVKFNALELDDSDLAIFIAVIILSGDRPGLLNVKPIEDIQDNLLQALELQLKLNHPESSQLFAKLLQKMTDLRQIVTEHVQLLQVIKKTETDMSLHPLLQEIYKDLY
# Chain of UniProt P11473 (P11473 whole entry, looked up): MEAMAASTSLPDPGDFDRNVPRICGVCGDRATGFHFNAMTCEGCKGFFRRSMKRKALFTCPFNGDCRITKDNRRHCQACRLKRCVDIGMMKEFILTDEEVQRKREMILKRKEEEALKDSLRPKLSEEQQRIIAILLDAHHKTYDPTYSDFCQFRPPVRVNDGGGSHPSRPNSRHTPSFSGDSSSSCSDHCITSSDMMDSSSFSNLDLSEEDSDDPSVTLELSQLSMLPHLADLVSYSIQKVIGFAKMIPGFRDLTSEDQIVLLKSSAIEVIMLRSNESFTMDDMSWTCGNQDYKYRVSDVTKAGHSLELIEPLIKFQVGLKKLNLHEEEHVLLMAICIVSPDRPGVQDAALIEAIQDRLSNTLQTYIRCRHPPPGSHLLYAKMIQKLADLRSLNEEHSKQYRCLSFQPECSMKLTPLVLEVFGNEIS
# Chain of UniProt Q03181 (Q03181 whole entry, looked up): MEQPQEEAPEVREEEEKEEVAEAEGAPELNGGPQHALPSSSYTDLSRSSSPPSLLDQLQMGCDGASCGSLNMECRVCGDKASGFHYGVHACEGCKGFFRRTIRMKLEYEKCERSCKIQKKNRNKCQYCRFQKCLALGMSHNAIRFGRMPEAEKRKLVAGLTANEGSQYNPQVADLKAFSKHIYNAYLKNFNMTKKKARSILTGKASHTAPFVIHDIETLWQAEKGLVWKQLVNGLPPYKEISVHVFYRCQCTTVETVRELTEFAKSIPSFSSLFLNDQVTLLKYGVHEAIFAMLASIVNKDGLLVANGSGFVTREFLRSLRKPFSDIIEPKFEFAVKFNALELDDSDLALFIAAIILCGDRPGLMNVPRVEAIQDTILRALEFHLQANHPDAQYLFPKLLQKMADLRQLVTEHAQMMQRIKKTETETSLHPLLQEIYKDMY
# Chain of UniProt Q96RI1 (Q96RI1 whole entry, looked up): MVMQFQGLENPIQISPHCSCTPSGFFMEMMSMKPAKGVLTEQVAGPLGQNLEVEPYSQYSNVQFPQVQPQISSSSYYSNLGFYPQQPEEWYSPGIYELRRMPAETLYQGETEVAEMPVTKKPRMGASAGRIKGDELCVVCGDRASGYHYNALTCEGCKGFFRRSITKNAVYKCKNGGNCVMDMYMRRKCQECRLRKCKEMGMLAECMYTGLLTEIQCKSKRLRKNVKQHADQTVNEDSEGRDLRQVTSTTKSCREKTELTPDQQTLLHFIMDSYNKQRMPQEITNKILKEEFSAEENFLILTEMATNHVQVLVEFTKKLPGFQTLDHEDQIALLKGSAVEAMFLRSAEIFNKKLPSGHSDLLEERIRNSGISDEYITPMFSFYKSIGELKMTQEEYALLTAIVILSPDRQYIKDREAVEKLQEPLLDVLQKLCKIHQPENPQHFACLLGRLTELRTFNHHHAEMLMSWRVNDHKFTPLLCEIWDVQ
structure (smiles),measurement,setting,value
CC(=O)C(Cl)C(=O)N(C)C (configuration not stated),"ratio activity, negative = inhibition",[1],inconclusive: -33.6%
same,"activity change, negative = cytotoxicity",[2],inconclusive: -33.7% [cytotoxic]
same,activation,[3],inconclusive: 13.8%
same,Potency,[4],inactive
CCCCC(C#N)(Cn1cncn1)c1ccc(Cl)cc1 (configuration not stated),"ratio activity, negative = inhibition",[1],inconclusive: 2.17%
same,Potency,[2],"inconclusive: 1.38 µM [cytotoxic, full curve, poor fit]"
same,activation,[3],inconclusive: -6.79%
same,Potency,[5],"inconclusive: 54.7 µM [falling, partial curve, poor fit]"
same,Potency,[6],"inactive and inconclusive: 12.3 µM [cytotoxic, single point]"
same,Potency,[7],inactive
CO/C=C(/C(=O)OC)c1ccccc1COc1cccc(C(F)(F)F)n1,Potency,[1],active: 4.36 µM
same,Potency,[2],"inconclusive: 1.95 µM [cytotoxic, full curve, poor fit]"
same,Potency,[3],"inconclusive: 61.1 µM [rising, partial curve, poor fit]"
same,Potency,[8],"inconclusive: 68.5 µM [cytotoxic, single point]"
same,Potency,[9],"inconclusive: 4.36 µM [cytotoxic, partial curve, poor fit]"
same,Potency,[10],"inconclusive: 3.89 µM [rising, full curve]"
same,Potency,[11],"inconclusive: 6.16 µM [inhibitor, full curve]"
same,Potency,[12],"inconclusive: 15.5 µM [rising, full curve, poor fit]"
same,"activity change, negative = inhibition",[13],inconclusive: -37.7%
same,Potency,[14],"inconclusive: 3.89 µM [cytotoxic, full curve]"
same,Potency,[15],"inconclusive: 6.91 µM [cytotoxic, full curve]"
O=C1CCCCC1Cl (configuration not stated),Potency,[1],inactive
same,activation,[3],inconclusive: 1.37% [at 94.8 µM]
CN(C)c1ccc(N(C)C)cc1,Potency,[1],"inconclusive: 49.1 µM [activator, partial curve, poor fit]"
same,Potency,[2],inactive
same,Potency,[3],"inconclusive: 34.5 µM [rising, partial curve, poor fit]"
same,Potency,[9],"inconclusive: 55.1 µM [cytotoxic, single point]"
same,Potency,[7],inactive
same,Potency,[14],"inconclusive: 61.8 µM [cytotoxic, single point]"
Clc1ccc(C(Cl)(Cl)Cl)cc1,Potency,[1],inactive
same,Potency,[2],"inconclusive: 22.1 µM [rising, single point]"
same,Potency,[16],inactive
